# Laboratory results reported in the supplement of paper PMC3334620.
# In all, about 33,000 sequences were measured (“E-score (-0.5 to 0.5)”: median about -0.016, highest 2% from about 0.31 on). The list shows a part of the results.
# Target: Cst6 (UniProt P40535)
# Experiment: PBM E-score (8-mer binding enrichment) (E-score (-0.5 to 0.5)); higher = stronger / more preferred TF binding; most listed sequences are background and not binding sites
# Conditions: protein concentration: 200 nM; construct: GST-DNA-binding domain
# Procedure: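 Universal 'all 10-mer' protein binding microarrays (Agilent AMADID 015681) probed with GST-tagged S. cerevisiae TFs (full-length or DBD) made by in vitro transcription/translation (PURExpress), about 100-200 nM. Bound TF was detected with fluorescent anti-GST. Each ungapped 8-mer (which stands for itself and its reverse complement) is scored by the PBM enrichment score (E-score), a modified Wilcoxon-Mann-Whitney statistic from -0.5 to +0.5, computed with the Universal PBM Analysis Suite. Scale: above 0.35 generally sequence-specific binding.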
row,Sequence,PBM E-score
1,AAGGTTCC,-0.13
2,GGCGTACC,-0.19
3,ATTAGGAG,0.0715
4,CCGATAAC,0.00087
5,ACAGTGAT,0.233
6,AATGCGGG,0.0926
7,ATGGAAGC,0.0741
8,CAGACATC,-0.0467
9,GTTTTGAA,0.147
10,GGCGGTAA,0.0405
11,AATCGTTA,0.191
12,TCCACGGA,0.105
13,ATATGCCC,-0.199
14,AGGAACTA,-0.0983
15,ATAGGAAG,-0.0723
16,ATGCCAGG,-0.278
17,CGTGATCA,0.143
18,CTATCATC,0.0729
19,ACTGAGGG,-0.155
20,CGGTCCAA,-0.337
21,ATAAAGCA,0.062
22,ATATCAAG,0.216
23,CATACAGG,-0.0907
24,AGATGTAA,0.27
25,CCCCTGAG,-0.189

row,Sequence,PBM E-score
1,AGTCGTCC,-0.203
2,ACTGCCAC,-0.0105
3,AAGCATAC,-0.00158
4,GTTTTCAA,0.282
5,GGAGCATA,-0.00076
6,CCGCCACG,-0.0716
7,CACCGTTC,-0.0919
8,ACTTGGTC,-0.043
9,ACTATGGG,-0.23
10,ATCATGGC,0.00482
11,ACATGTCG,-0.0571
12,GGCGCTGA,0.087
13,ATCAAGTA,0.0486
14,TAGTAAAA,0.2
15,CCATACGA,-0.0654
16,ACAATCTG,0.00272
17,AGTATGTA,0.0263
18,ACACCGGC,-0.131
19,CGACTGTA,-0.164
20,TATCCTAA,0.0771
21,AAGCAGTC,-0.157
22,CTTCACTA,-0.0315
23,ACGCTAGA,-0.243
24,ACCGAGGA,-0.0481
25,TAGTGCCA,-0.123

row,Sequence,PBM E-score
1,GGGTGCAA,-0.0608
2,TAAAGATA,0.146
3,GGGAAAGA,-0.0768
4,GTCAATGA,0.235
5,ACTGAGCT,-0.0328
6,CTGAGATA,0.0117
7,AAAGACTT,-0.00509
8,CAAGGCGC,0.191
9,AAAATGCG,0.0836
10,GCTTGAGA,-0.12
11,AGTACGGC,0.259
12,ATAGTTTA,0.0387
13,CTAGACGA,-0.133
14,ACACCGGG,-0.097
15,AGACTGGG,-0.152
16,TATTCTGA,0.0525
17,CTATGGAG,-0.236
18,AAGTTTAC,0.165
19,GATGACCC,-0.0821
20,ACTCGAAC,0.166
21,AGACTGCG,-0.0946
22,CCAGCTCC,-0.29
23,GAATTGCA,0.068
24,ATACCTAC,-0.0269
25,ACGTTTTC,0.0851

row,Sequence,PBM E-score
1,AAGAATTC,0.0929
2,GTCTGAAC,-0.0404
3,AAGGCGAA,0.0155
4,AGGCAACC,-0.178
5,ATTAAAAA,0.323
6,GTCCGGCA,-0.176
7,AAAGGCGC,0.0473
8,TCAAGTCA,0.129
9,AACCAGGC,-0.083
10,TCGTGAGA,-0.011
11,CTCGCACC,-0.219
12,CACAAATG,0.0462
13,ACTAGACG,0.106
14,GCGGACCC,-0.281
15,GTACGGCA,0.249
16,CAACGGAA,0.13
17,AAGAAGTA,0.158
18,AAGATACA,0.211
19,ATATGGGG,-0.134
20,AGAGAGCG,-0.186
21,CACCAAGC,-0.131
22,CAGTCCCC,-0.311
23,ATGGGGGC,-0.311
24,GGTCTGTA,-0.183
25,GTCACGGA,0.148

row,Sequence,PBM E-score
1,CAGATTGG,-0.24
2,ATATGAAC,0.246
3,ACCGGCAT,-0.0617
4,CCAGTGAC,0.176
5,AAATCAGC,0.195
6,GAACAATC,0.00671
7,CATGCAGG,-0.197
8,CTTCGCCC,-0.288
9,AGTGATGC,0.317
10,GTTGAATA,0.154
11,AGATACAC,0.0892
12,ACCGGGCT,-0.25
13,GCCGATCA,0.0606
14,GATTCGAA,0.135
15,ACTAATTA,0.351
16,CACCATCC,-0.028
17,CATCACAC,0.273
18,AGATTGCT,-0.207
19,TGGACCAA,-0.0585
20,ATAGACAC,0.122
21,CCAACCGG,-0.0768
22,AGTTCCTC,-0.319
23,GGGTATGA,0.156
24,CCAAAAGA,0.207
25,AGGCGAGC,-0.195

row,Sequence,PBM E-score
1,CACCGACG,0.0197
2,GTTAGCAA,0.0353
3,CCCATAAG,-0.157
4,ACCCTAGG,-0.211
5,AGCCTCCT,-0.181
6,AATGGCTA,0.0894
7,CAACGCAA,0.0859
8,GGCGAACA,-0.0418
9,ACATGGGG,-0.201
10,CCCGGCGG,-0.265
11,CGTCGTCC,-0.232
12,GCTAACAC,-0.00396
13,AAATGAGC,0.105
14,ATATCCAC,-0.0157
15,CGTACCTC,-0.262
16,ATTCGGCG,0.0868
17,AGGCGTAT,0.127
18,TACTATGA,0.23
19,AGTCGGAC,-0.144
20,ATACCGCG,-0.138
21,ATTTATTG,0.0971
22,ATAGAAAG,-0.011
23,GTTGGACA,-0.0168
24,GAGCGCTC,-0.24
25,AAGTAAGT,0.116

row,Sequence,PBM E-score
1,AACGGCAG,0.134
2,ACTTATAC,0.135
3,ATTGTGTC,0.218
4,CAATTCTC,0.0386
5,GATCTCGC,0.01
6,CTGCCGCC,-0.203
7,GTTGCCTA,-0.0301
8,CAAGTTGA,-0.0213
9,GACCATCA,-0.0339
10,AAAGTTAA,0.241
11,ATTTCGTA,0.175
12,GGAGTTTA,0.00491
13,AACGTTCC,-0.191
14,CTTGAGAA,0.0695
15,GCTGGGTA,-0.252
16,AACAGTAT,0.218
17,ACTTATGG,-0.048
18,CCATTGAG,0.0407
19,CCGATTTC,-0.121
20,AACTTCTC,0.132
21,CCCCGCCC,0.0656
22,ATACCAAA,0.0247
